Assay results taken from US20200140562A1 (Innovent, published 2020).
Read-outs that look alike come from different tables or passages of the source.

T1: human OX40 on cells (CHO-hOX40, 293HEK-hOX40, Jurkat-hOX40, activated primary CD4+ T cells) (human, UniProt P43489 29-277)
T1 construct: whole, on cells; The cell type is told in each assay; also called CHO-OX40
T1 sequence (looked up): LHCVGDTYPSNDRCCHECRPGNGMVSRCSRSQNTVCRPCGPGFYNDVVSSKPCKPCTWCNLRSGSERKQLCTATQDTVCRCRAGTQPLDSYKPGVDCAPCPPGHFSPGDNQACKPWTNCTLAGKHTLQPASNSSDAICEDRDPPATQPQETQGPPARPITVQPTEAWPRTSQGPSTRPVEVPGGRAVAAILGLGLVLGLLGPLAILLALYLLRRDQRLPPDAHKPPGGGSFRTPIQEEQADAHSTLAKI

T2: mouse OX40Fc (Acro Biosystems) (mouse, UniProt P47741 20-211, limits assumed)
T2 construct: Bought; not shown: Fc
T2 sequence (looked up): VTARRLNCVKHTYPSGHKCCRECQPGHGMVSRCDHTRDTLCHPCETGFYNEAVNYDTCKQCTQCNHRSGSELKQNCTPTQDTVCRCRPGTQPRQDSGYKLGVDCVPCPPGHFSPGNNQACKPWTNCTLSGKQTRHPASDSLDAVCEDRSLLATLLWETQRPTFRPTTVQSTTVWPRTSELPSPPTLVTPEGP

B1: ADI-20051, IgG1 format (antibody)
heavy: QVQLQQWGAGLLKPSETLSLTCAVYGGSFSGYYWSWIRQPPGKGLEWIGEIDHSGSTNYNPSLKSRVTISVDTSKNQFSLKLSSVTAADTAVYYCARDGGGGYASPFDYWGQGTLVTVSS[human IgG1 constant region cut from this listing]
light: EIVMTQSPATLSVSPGERATLSCRASQSVSSNLAWYQQKPGQAPRLLIYGASTRATGIPARFSGSGSGTEFTLTISSLQSEDFAVYYCQQYHAWPPTFGGGTKVEIKRTVAAPSVFIFPPSDEQLKSGTASVVCLLNNFYPREAKVQWKVDNALQSGNSQESVTEQDSKDSTYSLSSTLTLSKADYEKHKVYACEVTHQGLSSPVTKSFNRGEC
notes: Made in yeast or 293HEK cells, depending on the assay
B2: ADI-20112, IgG1 format (antibody)
heavy: QVQLVESGGGVVQPGRSLRLSCAASGFTFSSYGMHWVRQAPGKGLEWVAVISYDGSNKYYADSVKGRFTISRDNSKNTLYLQMNSLRAEDTAVYYCARGRPWYSETGTSAFDIWGQGTMVTVSS[human IgG1 constant region cut from this listing]
light: DIQMTQSPSSLSASVGDRVTITCQASQDISNYLNWYQQKPGKAPKLLIYDASNLETGVPSRFSGSGSGTDFTFTISSLQPEDIATYYCQQSDHYPTFGGGTKVEIKRTVAAPSVFIFPPSDEQLKSGTASVVCLLNNFYPREAKVQWKVDNALQSGNSQESVTEQDSKDSTYSLSSTLTLSKADYEKHKVYACEVTHQGLSSPVTKSFNRGEC
notes: Made in yeast, 293HEK or CHO cells, depending on the assay; also called ADI-20112-g1
B3: ADI-20118, IgG1 format (antibody)
heavy: QVQLVQSGAEVKKPGASVKVSCKASGYTFTSYAISWVRQAPGQGLEWMGWISAYNGNTNYAQKLQGRVTMTTDTSTSTAYMELRSLRSDDTAVYYCARSGGGSGPNWFDPWGQGTLVTVSS[human IgG1 constant region cut from this listing]
light: DIQMTQSPSSLSASVGDRVTITCQASQDISNYLNWYQQKPGKAPKLLIYDASNLETGVPSRFSGSGSGTDFTFTISSLQPEDIATYYCQQPATLPWTFGGGTKVEIKRTVAAPSVFIFPPSDEQLKSGTASVVCLLNNFYPREAKVQWKVDNALQSGNSQESVTEQDSKDSTYSLSSTLTLSKADYEKHKVYACEVTHQGLSSPVTKSFNRGEC
notes: as for B1

Tests used:
[1] = molecular target: T1, human OX40 on cells (CHO-hOX40, …); assay: flow cytometry, CHO-hOX40, 0.78125 nM
[2] = molecular target: T1, human OX40 on cells (CHO-hOX40, …); assay: flow cytometry, 293HEK-hOX40, 40 nM
[3] = molecular target: T1, human OX40 on cells (CHO-hOX40, …); assay: flow cytometry, MFI on CHO-hOX40 over wild-type CHO
[4] = molecular target: T2, mouse OX40Fc (Acro Biosystems); assay: BLI, IgG1 on tip, mouse OX40-Fc in solution
[5] = molecular target: T1, human OX40 on cells (CHO-hOX40, …); assay: flow cytometry, CHO-hOX40, 100 nM
[6] = molecular target: T3, human OX40_Fc (R&D Systems) (human, UniProt P43489 29-216); assay: BLI, IgG1 on tip, hOX40-Fc 50 nM, avid
T3 construct: Bought

[7] = molecular target: T1, human OX40 on cells (CHO-hOX40, …); assay: flow cytometry, CHO-hOX40, 0.024414063 nM
[8] = molecular target: T2, mouse OX40Fc (Acro Biosystems); assay: BLI, IgG1 on tip, mouse OX40-Fc in solution; remark: listed apart in the source
[9] = molecular target: T4, cyno OX40_Fc (Acro Biosystems) (cyno); assay: BLI, IgG1 on tip, cyno OX40-Fc 100 nM, avid
T4 construct: Bought

[10] = molecular target: T1, human OX40 on cells (CHO-hOX40, …); assay: flow cytometry, CHO-hOX40, 100 nM; remark: listed apart in the source
[11] = molecular target: T1, human OX40 on cells (CHO-hOX40, …); assay: flow cytometry, MFI on CHO-hOX40 over wild-type CHO; remark: listed apart in the source
[12] = molecular target: T3, human OX40_Fc (R&D Systems); assay: BLI, IgG1 on tip, hOX40-Fc 50 nM, avid; remark: listed apart in the source

Row | Binder | MFI [1] [MFI] | MFI [2] [MFI] | Fold difference [3] [fold] | binding result [4] | CHO-OX40 binding intensity (MFI) [5] [MFI] | Kd [6] [nM] | MFI [7] [MFI] | binding result [8] | Kd [9] [nM] | CHO-OX40 binding intensity (MFI) [10] [MFI] | Fold difference [11] [fold] | Kd [12] [nM]
1 | B1 | 604000 | 2.39e+06 | 1570 | no binding (tested: 100 nM) | 151000 | 0.74 | 43200 | – | – | – | – | –
2 | B2 | 655000 | 1.92e+06 | 2410 | – | 153000 | 0.735 | 36800 | no binding (tested: 100 nM) | 6.82 | 244000 | 2080 | 0.775
3 | B3 | 530000 | 1.98e+06 | 1870 | no binding (tested: 100 nM) | 144000 | 0.51 | 19000 | – | – | – | – | –
